The results in this text go back to the supplement of paper PMC10037445.

Test [1] relates to RAW-Dual. The test can be described thus: NF-kB SEAP reporter activity, fold change vs agonist alone; higher = enhanced NF-kB activity. To be noted: library stock concentration (final ~1000-fold dilution): 10 mM. In a few lines:
(§1)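 Library stock was pin-tooled at 50 nL into 384-well plates of RAW-Dual macrophages (50,000 cells/well, DMEM), followed 1 h later by a PRR agonist, and the cells were kept at 37 °C, 5% CO2. Supernatant collected after 20 hours was read for IRF by QuantiLuc luminescence and for NF-κB by QuantiBlue absorbance at 620 nm. Reporter activity is fold change over agonist-alone wells, and a well counted as cytotoxic when its IncuCyte confluency was below 70% of agonist controls in both mask sets.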

Test [2] concerns RAW-Dual. As to the kind of experiment: NF-kB SEAP reporter activity, fold change vs agonist alone; cytotoxicity flag (confluency mask): not cytotoxic; higher = enhanced NF-kB activity. In a few lines: as §1
In test [3] the test system is RAW-Dual. As to the kind of experiment: NF-kB SEAP reporter activity, fold change vs agonist alone; cytotoxicity flag (confluency mask): cytotoxic (confluency <70% of control); higher = enhanced NF-kB activity. In a few lines:
as §1

Setting [4] is: cytotoxicity flag (confluency mask): not cytotoxic, agonist: Imiquimod (TLR7) […].
The mark [5] stands for this setting: cytotoxicity flag (confluency mask): not cytotoxic, agonist: MPLA (TLR4) […].
Setting [6] is: agonist: ODN 1826 (TLR9) 0.5 ug/mL.
[7] abbreviates: agonist: Pam2CSK4 (TLR2/6) 0.1 ug/mL.
Setting [8] is: agonist: Pam3CSK4 (TLR2/1) 0.1 ug/mL.

In all, about 2,900 compounds were measured (“NF-kB SEAP reporter activity, fold change vs agonist alone”: median about 0.99, highest 2% from about 2.6 on). This is one part of the list.

As to `CCC(C(N)=O)N1CCCC1=O` (stereo not given), the “NF-kB SEAP reporter activity” value in the test with RAW-Dual [1] (setting [4]) is 1.02; with RAW-Dual [1] (setting [5]), 0.971.

`CCC(C(N)=O)N1CCCC1=O` (stereo not given) (library stock concentration (final ~1000-fold dilution): 10 mM): the “NF-kB SEAP reporter activity” value in the test on RAW-Dual [2] (agonist: LPS (TLR4) 0.1 ug/mL) stood at 1.06; in the test on RAW-Dual [2] (setting [6]), 0.879; with RAW-Dual [2] (setting [7]), 0.99; in the test with RAW-Dual [2] (setting [8]), 1.06.

Take `CC[N+](C)(CC)CCOC(=O)C(O)(c1ccccc1)c1ccccc1`: the “NF-kB SEAP reporter activity” value with RAW-Dual [1] (setting [5]) turned out to be 1.01.

Consider `CC[N+](C)(CC)CCOC(=O)C(O)(c1ccccc1)c1ccccc1` (library stock concentration (final ~1000-fold dilution): 10 mM), for which the “NF-kB SEAP reporter activity” value in the test with RAW-Dual [2] (agonist: LPS (TLR4) 0.1 ug/mL) came out at 0.821; in the test with RAW-Dual [2] (setting [6]), 0.989; with RAW-Dual [2] (setting [7]), 0.934; in the test on RAW-Dual [2] (setting [8]), 1.39.

For the compound `CN1C2CCC1CC(=O)C2`, the “NF-kB SEAP reporter activity” value in the test on RAW-Dual [1] (setting [4]) amounted to 1.66; in the test with RAW-Dual [1] (setting [5]), 1.16.

Consider `CN1C2CCC1CC(=O)C2` (library stock concentration (final ~1000-fold dilution): 10 mM), for which the “NF-kB SEAP reporter activity” value in the test on RAW-Dual [2] (agonist: LPS (TLR4) 0.1 ug/mL) amounted to 0.911; with RAW-Dual [2] (setting [6]), 1.6; in the test with RAW-Dual [2] (setting [7]), 1; with RAW-Dual [2] (setting [8]), 1.54.

For `CN1C2CCC1CC(OC(=O)C(CO)c1ccccc1)C2` (stereo not given), the “NF-kB SEAP reporter activity” value in the test with RAW-Dual [1] (setting [4]) is 0.848; in the test with RAW-Dual [1] (setting [5]), 0.97.

As to `CN1C2CCC1CC(OC(=O)C(CO)c1ccccc1)C2` (stereo not given) (library stock concentration (final ~1000-fold dilution): 10 mM), the “NF-kB SEAP reporter activity” value is 1.05 in the test with RAW-Dual [2] (agonist: LPS (TLR4) 0.1 ug/mL), 0.888 with RAW-Dual [2] (setting [6]), 0.983 in the test on RAW-Dual [2] (setting [7]) and 0.972 in the test on RAW-Dual [2] (setting [8]).

Consider `Cl.O=C(O)Cc1c[nH]cn1` (library stock concentration (final ~1000-fold dilution): 10 mM), for which the “NF-kB SEAP reporter activity” value was 1.34 in the test on RAW-Dual [2] (agonist: LPS (TLR4) 0.1 ug/mL), 0.991 in the test on RAW-Dual [2] (setting [6]), 0.973 with RAW-Dual [2] (setting [7]) and 0.728 in the test with RAW-Dual [2] (setting [8]).

Regarding `Cl.O=C(O)Cc1c[nH]cn1`, the “NF-kB SEAP reporter activity” value with RAW-Dual [1] (setting [4]) turned out to be 0.935; with RAW-Dual [1] (setting [5]), 1.05.

Regarding `CN1CCN(c2nc3ccccc3nc2Cl)CC1`, the results for the “NF-kB SEAP reporter activity” value with RAW-Dual [1] (setting [4]) and in the test on RAW-Dual [1] (setting [5]) were 0.895 and 0.911, respectively.

In the case of `CN1CCN(c2nc3ccccc3nc2Cl)CC1` (library stock concentration (final ~1000-fold dilution): 10 mM), the “NF-kB SEAP reporter activity” value in the test with RAW-Dual [2] (agonist: LPS (TLR4) 0.1 ug/mL) was 0.814; in the test on RAW-Dual [2] (setting [6]), 0.702; with RAW-Dual [2] (setting [7]) it was 0.784; in the test with RAW-Dual [2] (setting [8]), 0.902.

As for `CCN1CC2(OC(=O)c3ccccc3NC(C)=O)CCC(OC)C34C1C(CC23)C1(O)CC(OC)C2CC4C1(O)C2OC` (stereo not given) (library stock concentration (final ~1000-fold dilution): 10 mM), the “NF-kB SEAP reporter activity” value amounted to 0.919 with RAW-Dual [2] (agonist: LPS (TLR4) 0.1 ug/mL), 0.941 in the test on RAW-Dual [2] (setting [6]), 1.19 in the test on RAW-Dual [2] (setting [7]) and 1.06 with RAW-Dual [2] (setting [8]).

Take `CCN1CC2(OC(=O)c3ccccc3NC(C)=O)CCC(OC)C34C1C(CC23)C1(O)CC(OC)C2CC4C1(O)C2OC` (stereo not given): the “NF-kB SEAP reporter activity” value with RAW-Dual [1] (setting [4]) came out at 0.95; in the test on RAW-Dual [1] (setting [5]), 1.06.

As to `COc1cc2c(cc1OC)C13CCN4CC5=CCOC6CC(=O)N2C1C6C5CC43.COc1cc2c(cc1OC)C13CCN4CC5=CCOC6CC(=O)N2C1C6C5CC43.O.O.O.O.O.O.O.O=S(=O)(O)O` (stereo not given), the “NF-kB SEAP reporter activity” value in the test on RAW-Dual [1] (setting [4]) came out at 0.935; in the test on RAW-Dual [1] (setting [5]), 0.999.

In the case of `COc1cc2c(cc1OC)C13CCN4CC5=CCOC6CC(=O)N2C1C6C5CC43.COc1cc2c(cc1OC)C13CCN4CC5=CCOC6CC(=O)N2C1C6C5CC43.O.O.O.O.O.O.O.O=S(=O)(O)O` (stereo not given) (library stock concentration (final ~1000-fold dilution): 10 mM), the “NF-kB SEAP reporter activity” value with RAW-Dual [2] (agonist: LPS (TLR4) 0.1 ug/mL) is 0.96; with RAW-Dual [2] (setting [6]), 1.07; in the test on RAW-Dual [2] (setting [7]), 1.01; with RAW-Dual [2] (setting [8]) it was 1.04.

With `C/C(O)=C(\C#N)C(=O)Nc1cc(Br)ccc1Br` (library stock concentration (final ~1000-fold dilution): 10 mM), the “NF-kB SEAP reporter activity” value was 1.11 in the test on RAW-Dual [2] (agonist: LPS (TLR4) 0.1 ug/mL), 1 with RAW-Dual [2] (setting [6]), 1.11 in the test on RAW-Dual [2] (setting [7]) and 0.974 in the test on RAW-Dual [2] (setting [8]).

With `C/C(O)=C(\C#N)C(=O)Nc1cc(Br)ccc1Br`, the “NF-kB SEAP reporter activity” value stood at 0.829 with RAW-Dual [1] (setting [4]) and 1.03 with RAW-Dual [1] (setting [5]).

For the compound `Cc1ccccc1-n1c(Cn2ncc3c(N)ncnc32)nc2cccc(C)c2c1=O`, the “NF-kB SEAP reporter activity” value in the test on RAW-Dual [1] (setting [4]) stood at 0.723; in the test with RAW-Dual [1] (setting [5]) it was 0.688.

Regarding `Cc1ccccc1-n1c(Cn2ncc3c(N)ncnc32)nc2cccc(C)c2c1=O` (library stock concentration (final ~1000-fold dilution): 10 mM), the “NF-kB SEAP reporter activity” value is 0.522 in the test on RAW-Dual [2] (agonist: LPS (TLR4) 0.1 ug/mL), 0.674 in the test with RAW-Dual [2] (setting [6]), 0.581 with RAW-Dual [2] (setting [7]) and 0.613 in the test on RAW-Dual [2] (setting [8]).

`COc1ccc(CC2NCC(O)C2OC(C)=O)cc1` (stereo not given): the “NF-kB SEAP reporter activity” value with RAW-Dual [1] (cytotoxicity flag (confluency mask): cytotoxic (confluency <70% of control), agonist: Imiquimod (TLR7) […]) is 0.133; in the test on RAW-Dual [1] (cytotoxicity flag (confluency mask): cytotoxic (confluency <70% of control), agonist: MPLA (TLR4) […]), 0.231.

As for `COc1ccc(CC2NCC(O)C2OC(C)=O)cc1` (stereo not given) (library stock concentration (final ~1000-fold dilution): 10 mM), the “NF-kB SEAP reporter activity” value is 0.216 in the test with RAW-Dual [3] (agonist: LPS (TLR4) 0.1 ug/mL), 0.171 in the test on RAW-Dual [3] (setting [6]), 0.0635 in the test on RAW-Dual [3] (setting [7]) and 0.145 in the test on RAW-Dual [3] (setting [8]).

Take `CCC1(C)CC(=O)NC(=O)C1` (library stock concentration (final ~1000-fold dilution): 10 mM): the “NF-kB SEAP reporter activity” value in the test on RAW-Dual [2] (agonist: LPS (TLR4) 0.1 ug/mL) stood at 1.11; with RAW-Dual [2] (setting [6]), 0.893; in the test on RAW-Dual [2] (setting [7]) it was 1.1; in the test on RAW-Dual [2] (setting [8]) it was 1.03.

Consider `CCC1(C)CC(=O)NC(=O)C1`, for which the “NF-kB SEAP reporter activity” value stood at 0.906 in the test on RAW-Dual [1] (setting [4]) and 1.07 in the test on RAW-Dual [1] (setting [5]).

On to `COc1cc2c(cc1O)CC1c3c(cc(O)c(OC)c3-2)CCN1C` (stereo not given) (library stock concentration (final ~1000-fold dilution): 10 mM), for which the “NF-kB SEAP reporter activity” value was found to be 1.04 in the test with RAW-Dual [2] (agonist: LPS (TLR4) 0.1 ug/mL), 0.815 with RAW-Dual [2] (setting [6]), 1.1 in the test on RAW-Dual [2] (setting [7]) and 1.1 with RAW-Dual [2] (setting [8]).
